Results on 153 variants are retold here after a collection of fitness landscapes (doi:10.1126/science.1257360).

B1: PhoQ; a variant is named by its letters at X, in order, P23837 (parent)
chain: MKKLLRLFFPLSLRVRFLLATAAVVLVLSLAYGMVALIGYSVSFDKTTFRLLRGESNLFYTLAKWENNKLHVELPENIDKQSPTMTLIYDENGQLLWAQRDVPWLMKMIQPDWLKSNGFHEIEADVNDTSLLLSGDHSIQQQLQEVREDDDDAEMTHSVAVNVYPATSRMPKLTIVVVDTIPVELKSSYMVWSWFIYVLSANLLLVIPLLWVAAWWSLRPIEALAKEVRELEEHNRELLNPATTRELTSLVRNLNRLLKSERERYDKYRTTLTDLTHSLKTPLXXLQXXLRSLRSEKMSVSDAEPVMLEQISRISQQIGYYLHRASMRGGTLLSRELHPVAPLLDNLTSALNKVYQRKGVNISLDISPEISFVGEQNDFVEVMGNVLDNACKYCLEFVEISARQTDEHLYIVVEDDGPGIPLSKREVIFDRGQRVDTLRPGQGVGLAVAREITEQYEGKIVAGESMLGGARMEVIFGRQHSAPKDE

The other results are listed elsewhere or left out. A value given as a limit tells only on which side of the number the result lay.

In the assay the parent is B1. Briefly: enrichment ratio after two sorts for PhoP signalling (ratio (wild type AVST 3.29)); higher = more functional. The settings on record: with PhoP (E. coli).
Consider EGTH, for which the enrichment ratio was at most 0.25. For DQPV, the enrichment ratio was at most 0.25. TFKG: the enrichment ratio is at most 0.25. Regarding TPEH, the enrichment ratio is at most 0.25. On to GHPA, for which the enrichment ratio is at most 0.25.

Regarding GWNM, the enrichment ratio was at most 0.25. With HSME, the enrichment ratio is at most 0.25. With NQNP, the enrichment ratio was at most 0.25. Turning to TQKH, the enrichment ratio is at most 0.25.

Consider NGIK, for which the enrichment ratio was at most 0.25.

With VDII, the enrichment ratio was at most 0.25. Regarding VRYR, the enrichment ratio was at most 0.25.

As for RHET, the enrichment ratio is at most 0.25.

Consider TQWH, for which the enrichment ratio came out at 21.9.

In the case of VMPG, the enrichment ratio was at most 0.25. For the variant YNFW, the enrichment ratio was at most 0.25.

Consider FLHR, for which the enrichment ratio is at most 0.25. Regarding GSMQ, the enrichment ratio was 10.1. Turning to WTWE, the enrichment ratio was at most 0.25. The figure for SCFW is at most 0.25; for QVTR it is at most 0.25; for STHC it is at most 0.25.

Take YMFP: the enrichment ratio was at most 0.25.

On to MSVY, for which the enrichment ratio came to 7.18. On to QPAK, for which the enrichment ratio is at most 0.25. As for SPRQ, the enrichment ratio is at most 0.25. For GQAT, the enrichment ratio was at most 0.25.

With EAGK, the enrichment ratio is at most 0.25. For PEAL, the enrichment ratio is at most 0.25. On to MIPD, for which the enrichment ratio is at most 0.25. As for LYMW, the figure is at most 0.25; as for VDTC, at most 0.25; as for SLPS, at most 0.25. Turning to KIQD, the enrichment ratio is at most 0.25. The figure for AKYA is at most 0.25; for HSLF it is 3.47.

In the case of AFPT, the enrichment ratio is at most 0.25. The figure for TILG is 1.15; for EQPI it is at most 0.25; for HYRW it is at most 0.25.

For HFTE, the enrichment ratio is at most 0.25.

Take NGHI: the enrichment ratio is at most 0.25. For INWL, the enrichment ratio is at most 0.25.

Take KTSA: the enrichment ratio was at most 0.25.

HNGK: the enrichment ratio was at most 0.25. Regarding GECC, the enrichment ratio is 0.291. For the variant IIKD, the enrichment ratio was at most 0.25. Take HSCR: the enrichment ratio was at most 0.25. On to YQKQ, for which the enrichment ratio is at most 0.25. In the case of VRVM, the enrichment ratio was at most 0.25. As for MTDI, the enrichment ratio was at most 0.25. The figure for QHTL is at most 0.25. Regarding TFGI, the enrichment ratio amounted to 0.279. As for VQNK, the enrichment ratio was at most 0.25. On to AHKG, for which the enrichment ratio is at most 0.25.

As for HWAR, the enrichment ratio is at most 0.25.

On to SRFY, for which the enrichment ratio was at most 0.25. Regarding SWAL, the enrichment ratio was at most 0.25. As for QCQL, the figure is at most 0.25. In the case of NYAL, the enrichment ratio is at most 0.25.

YTGL: the enrichment ratio is at most 0.25. The figure for RIGY is at most 0.25. As for NLGV, the enrichment ratio was at most 0.25. The figure for QINC is at most 0.25. As for QYRK, the enrichment ratio is at most 0.25. As for IRCP, the figure is at most 0.25. Turning to KHVR, the enrichment ratio was at most 0.25. Turning to VNMQ, the enrichment ratio was 9.37. YCSR: the enrichment ratio is at most 0.25. For the variant ANFE, the enrichment ratio is at most 0.25. In the case of NIDM, the enrichment ratio is at most 0.25. For IYWP, the enrichment ratio was at most 0.25. As to VRMT, the enrichment ratio is at most 0.25. Take SMGY: the enrichment ratio is 7.3. Turning to RRPL, the enrichment ratio is at most 0.25.

For MMGY, the enrichment ratio is at most 0.25. On to STMK, for which the enrichment ratio came to 9.3. As to NMMP, the enrichment ratio is at most 0.25.

Turning to PTAE, the enrichment ratio was at most 0.25. KAWL: the enrichment ratio is at most 0.25. Consider EVHW, for which the enrichment ratio was at most 0.25. For KFWG, the enrichment ratio was at most 0.25. FQTS: the enrichment ratio is at most 0.25. Turning to PSLK, the enrichment ratio was at most 0.25.

Turning to NARN, the enrichment ratio is at most 0.25. In the case of DLRE, the enrichment ratio is at most 0.25. Consider CYSP, for which the enrichment ratio was at most 0.25. In the case of ELCG, the enrichment ratio is at most 0.25. On to VYMP, for which the enrichment ratio was at most 0.25. Regarding IYGL, the enrichment ratio is at most 0.25.

In the case of PMSS, the enrichment ratio was at most 0.25.

In the case of RGFH, the enrichment ratio was at most 0.25. Consider KNRQ, for which the enrichment ratio was at most 0.25.

As for ESER, the enrichment ratio is at most 0.25.

Regarding EPFQ, the enrichment ratio is at most 0.25. Take MTGK: the enrichment ratio was at most 0.25. The figure for KFRY is at most 0.25.

As to RWDI, the enrichment ratio was at most 0.25. As for HDKL, the figure is at most 0.25; as for IIPD, at most 0.25; as for RQQI, at most 0.25.

On to FCGE, for which the enrichment ratio was at most 0.25.

Turning to HWHI, the enrichment ratio is at most 0.25. The figure for PTVM is at most 0.25; for VVEP it is at most 0.25; for HSVA it is at most 0.25. With FNWD, the enrichment ratio is at most 0.25. As for SRGK, the enrichment ratio is at most 0.25. The figure for AFKW is at most 0.25; for HTCR it is at most 0.25. For the variant MVMG, the enrichment ratio stood at 1.65. Turning to EQDL, the enrichment ratio is at most 0.25. For FLTC, the enrichment ratio was at most 0.25.

For the variant NTCK, the enrichment ratio was at most 0.25.

Turning to MAAF, the enrichment ratio is at most 0.25. Regarding YTPS, the enrichment ratio is at most 0.25. For the variant MVYQ, the enrichment ratio is at most 0.25. As for LQFS, the figure is 0.355. For WRTQ, the enrichment ratio is at most 0.25. Consider DAKP, for which the enrichment ratio was at most 0.25.

As for NVRY, the enrichment ratio is at most 0.25.

Turning to TYGL, the enrichment ratio is 3.42. NPVP: the enrichment ratio was at most 0.25.

In the case of QNSV, the enrichment ratio was found to be 1.25. As for IAWY, the enrichment ratio was at most 0.25. Turning to SAVT, the enrichment ratio is 0.95. Turning to SLNV, the enrichment ratio is at most 0.25. Regarding MQVH, the enrichment ratio came out at 2.29. With MYSI, the enrichment ratio was at most 0.25. In the case of LLYI, the enrichment ratio was at most 0.25. DPWG: the enrichment ratio is at most 0.25.

Take ETLQ: the enrichment ratio is at most 0.25. Take SAYD: the enrichment ratio is at most 0.25.

For PLNK, the enrichment ratio was at most 0.25. In the case of WVVA, the enrichment ratio was at most 0.25. For NKNA, the enrichment ratio was at most 0.25. In the case of GKLA, the enrichment ratio was at most 0.25.

With MLWF, the enrichment ratio is at most 0.25. With MSNW, the enrichment ratio was at most 0.25. Turning to ERSE, the enrichment ratio is at most 0.25. With THNY, the enrichment ratio turned out to be 3.01. In the case of KVEH, the enrichment ratio was at most 0.25.

As to LKTN, the enrichment ratio was at most 0.25.

With FGVG, the enrichment ratio is at most 0.25.

SFSA: the enrichment ratio came to 0.898. As to EFLC, the enrichment ratio is at most 0.25. With IVTI, the enrichment ratio was at most 0.25.

In the case of SRCM, the enrichment ratio was determined as 9.77. With HQQV, the enrichment ratio is at most 0.25.

In the case of QQYH, the enrichment ratio was at most 0.25.

For the variant FGEQ, the enrichment ratio is at most 0.25. With PDPE, the enrichment ratio is at most 0.25. For the variant GVCL, the enrichment ratio was found to be 6.97.
